Results as given in the supplement of paper PMC3334620.
The full ranking holds about 33,000 sequences; the median of “E-score (-0.5 to 0.5)” is about -0.011, and the highest 2% start at about 0.28. The list shows a part of the results.

These sequences were tested against T1, Gcr1 (UniProt P07261) (assay: PBM E-score (8-mer binding enrichment) (E-score (-0.5 to 0.5)); higher = stronger / more preferred TF binding; most listed sequences are background and not binding sites). Conditions: protein concentration: 100 nM; construct: GST-full length.
T1 sequence: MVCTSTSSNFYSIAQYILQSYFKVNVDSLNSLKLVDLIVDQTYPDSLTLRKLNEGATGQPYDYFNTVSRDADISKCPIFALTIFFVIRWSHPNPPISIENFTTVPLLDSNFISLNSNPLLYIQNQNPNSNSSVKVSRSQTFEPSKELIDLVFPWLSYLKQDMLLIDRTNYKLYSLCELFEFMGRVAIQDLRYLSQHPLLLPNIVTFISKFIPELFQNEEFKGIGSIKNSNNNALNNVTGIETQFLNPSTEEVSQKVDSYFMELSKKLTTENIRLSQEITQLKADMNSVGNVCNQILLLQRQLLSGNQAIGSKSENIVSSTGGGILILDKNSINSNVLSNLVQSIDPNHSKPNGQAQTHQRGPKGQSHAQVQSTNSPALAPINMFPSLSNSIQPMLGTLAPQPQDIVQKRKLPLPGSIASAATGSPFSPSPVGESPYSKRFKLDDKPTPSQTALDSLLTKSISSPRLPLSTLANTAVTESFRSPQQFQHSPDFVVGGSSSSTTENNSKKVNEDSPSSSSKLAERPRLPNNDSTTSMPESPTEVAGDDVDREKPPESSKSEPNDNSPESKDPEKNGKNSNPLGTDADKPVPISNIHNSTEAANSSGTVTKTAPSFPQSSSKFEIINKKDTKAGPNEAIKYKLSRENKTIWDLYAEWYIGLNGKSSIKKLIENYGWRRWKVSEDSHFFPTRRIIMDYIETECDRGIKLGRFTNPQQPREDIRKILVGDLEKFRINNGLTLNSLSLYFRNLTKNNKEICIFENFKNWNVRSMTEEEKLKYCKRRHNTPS
How it was run: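 Universal all-10-mer Agilent arrays, double-stranded by primer extension on fresh or once-stripped slides, were probed with about 100-200 nM GST-tagged yeast transcription factors made by PURExpress. Fluorescent anti-GST detected bound protein, and masliner normalised the scans. E-scores from the Universal PBM Analysis Suite were given to each ungapped eight-base word pooled with its reverse complement.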

Sequence | PBM E-score
TCGGAAGA | -0.0643
ATGGGGTA | -0.128
ATTTACCG | 0.0338
GTCCGGTA | 0.112
CGTATTTC | 0.00508
GGCTCTTA | 0.0578
AACCTCAA | -0.0473
CATATGCG | -0.145
TCTACTAA | 0.242
CAATACCA | 0.0114
GGTAGAGA | -0.0114
AAATCGCG | 0.081
TCCATCGA | -0.286
TGCGCGAA | 0.14
ACGATCAA | -0.129
GCTGACCC | -0.26
GAGATCGA | -0.176
CAACTGGC | 0.0226
CCTCCACC | -0.103
ACTTTACT | 0.0341
ACGGAGCA | 0.0458
GTCGTGCA | -0.243

Sequence | PBM E-score
AAAGACTG | -0.0957
AAGCCTTA | -0.0336
AGTGGTTA | 0.00449
AGGGTAGG | -0.174
CCATACGC | 0.108
ACTTGGTA | -0.0608
ATACAGTG | 0.242
GGGGTACC | 0.0626
CTGGGGAC | -0.133
AGTTATTC | 0.0537
GGGCTTAA | -0.0342
TAGTAGAA | 0.262
ATTGTAGA | 0.15
GCGGCGAA | -0.0635
ACTACGAG | -0.171
CCGCTGAA | 0.0435
CCTGCTCA | -0.0926
AAGTAACA | -0.0228
AAAAAGGT | 0.0465
GCCTTGAC | -0.0688
GCCCAGAA | 0.0213
CCTTAGCG | -0.0185

Sequence | PBM E-score
CCAGCGGC | 0.0546
CTAGTAGC | 0.188
ACTCATAC | -0.0499
CTTAGACA | -0.142
ATTGAAGC | -0.164
TATTTGAA | 0.184
CCAACACA | 0.11
AATCGCAT | -0.13
AAGGTCTA | -0.0405
TACTAATA | 0.25
GGCATGAC | -0.261
ATAACTAT | 0.0438
CTCATCTC | -0.144
GCGCGCAC | 0.0775
CGGTGACG | -0.0907
AGTGAGTA | -0.199
ACGCCGCC | 0.228
GTCGAGTA | -0.0481
AACGCGAA | 0.00964
GTTAGACA | -0.135
CGTGTGTA | -0.127
AATGCGTG | 0.155

Sequence | PBM E-score
AATCCGGA | 0.13
CGCCTCAA | -0.0131
CACTTTTA | 0.215
ATTCTGAC | -0.00979
CCAGAATC | 0.245
GCTCTAAC | -0.0233
CACTGAGG | 0.0647
GATAATCA | 0.164
TGTAGTAA | -0.0583
AATTGAAA | 0.112
CATCATTC | -0.0201
ATGTGAAG | 0.00624
AGGTAAGC | -0.163
TCAACCCA | -0.00065
ATGAGTGA | -0.0294
GCAGCCAA | 0.395
CATGGGGC | 0.0987
CAGAAGTA | 0.0684
CTCGGCTC | -0.158
ATCTGCAT | 0.0153
ACTGTTAT | -0.0428
AAGTAACT | -0.12

Sequence | PBM E-score
TCAAAAAA | 0.233
AGTGATAG | -0.0549
TGCACGAA | -0.0334
ACAAACGA | 0.0544
CCAGCCGG | -0.0426
TCAGTGGA | 0.113
AAGGCGAT | -0.0194
CTGGGCGA | -0.25
ATCGCGAA | 0.179
CGAGAAGA | -0.00837
CGAAATCA | 0.0222
GCCTCACA | -0.0736
CGAGTTGC | -0.0564
ATCGACCG | -0.172
GCGAAAAC | -0.00962
CATGGATA | -0.163
AACACTTA | -0.062
ATAACAGG | 0.0809
CGTTAACA | -0.0497
CGGGAGTC | 0.151
AATAACGT | 0.00611
